Measurements as given in paper PMC4336329 (PLoS ONE, 2015).
The campaign covered roughly 310,000 compounds. About 14,000 (4.5%) showed an effect of 50% or more. Effects have a minus sign here. The list shows a part of the results.

target: human ether-à-go-go-related gene (hERG) potassium channel (human, UniProt Q12809); experiment: primary screen, population patch clamp on CHO cells stably expressing hERG
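Also: peak tail current of the secondary pulse compared with the same well before compound.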

Chain of human ether-à-go-go-related gene (hERG) potassium channel (Q12809 whole entry, looked up): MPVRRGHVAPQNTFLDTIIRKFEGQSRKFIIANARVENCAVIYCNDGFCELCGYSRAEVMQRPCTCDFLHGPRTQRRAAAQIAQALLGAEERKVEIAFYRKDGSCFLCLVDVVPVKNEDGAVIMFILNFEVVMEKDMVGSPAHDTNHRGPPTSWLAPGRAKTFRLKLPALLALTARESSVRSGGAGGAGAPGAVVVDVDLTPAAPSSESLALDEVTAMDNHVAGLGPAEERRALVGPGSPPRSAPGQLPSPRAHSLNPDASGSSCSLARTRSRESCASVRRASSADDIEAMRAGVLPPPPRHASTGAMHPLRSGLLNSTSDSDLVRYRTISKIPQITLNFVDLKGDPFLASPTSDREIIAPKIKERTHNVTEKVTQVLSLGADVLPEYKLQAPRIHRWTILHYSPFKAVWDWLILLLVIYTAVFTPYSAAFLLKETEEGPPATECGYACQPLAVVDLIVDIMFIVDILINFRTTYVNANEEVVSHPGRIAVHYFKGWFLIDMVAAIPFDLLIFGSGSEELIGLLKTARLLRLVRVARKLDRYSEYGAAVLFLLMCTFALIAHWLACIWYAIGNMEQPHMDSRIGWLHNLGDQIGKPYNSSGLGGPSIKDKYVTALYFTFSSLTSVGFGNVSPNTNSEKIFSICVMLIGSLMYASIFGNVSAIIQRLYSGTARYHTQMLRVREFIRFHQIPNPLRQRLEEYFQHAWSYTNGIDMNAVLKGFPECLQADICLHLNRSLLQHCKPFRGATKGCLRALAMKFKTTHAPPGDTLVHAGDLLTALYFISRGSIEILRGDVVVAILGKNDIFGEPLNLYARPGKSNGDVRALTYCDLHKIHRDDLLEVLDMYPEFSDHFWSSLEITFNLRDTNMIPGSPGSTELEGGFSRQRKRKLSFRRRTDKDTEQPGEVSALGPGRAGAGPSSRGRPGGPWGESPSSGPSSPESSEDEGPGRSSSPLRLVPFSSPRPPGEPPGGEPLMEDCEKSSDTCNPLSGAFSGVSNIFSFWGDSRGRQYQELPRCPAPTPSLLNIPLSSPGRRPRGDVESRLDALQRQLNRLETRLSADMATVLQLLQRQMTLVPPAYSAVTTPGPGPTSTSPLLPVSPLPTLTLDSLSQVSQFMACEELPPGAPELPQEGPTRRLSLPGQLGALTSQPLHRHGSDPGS

Compound	hERG current change (%, negative = inhibition) at 10uM [%]
COc1ccc(-c2ccc(C#N)c(SCC(=O)Nc3sc4c(c3C#N)CCC4)n2)cc1OC	10.3
CC(C)C(=O)N1CCN(c2nc(-c3ccccc3)c3c(c2C#N)CC(C)(C)OC3)CC1	-49.4
O=C(CSc1nnc(-c2ccc(O)cc2)o1)Nc1ccc2c(c1)OCCO2	-13.8
Cc1ccc(Nc2ncnc3sc(C)c(C)c23)cc1C	17.8
COc1ccccc1N1CCN(S(=O)(=O)c2cccc3nsnc23)CC1	-23
O=C(Cc1cccs1)Nc1cccnc1	4.77
O=C(CCNc1cc(Cl)cc(Cl)c1)c1ccco1	-4.77
COc1ccc(NC(=O)COn2nnc3ccc(Cl)cc32)cc1OC	-8.52
Cc1ccc(NS(=O)(=O)c2ccc3c(c2)CC(=O)N3)cc1F	-5.31
Cc1csc(CN(C)C(=O)CC2C(=O)NCCN2Cc2ccc(-c3ccccc3)cc2)n1 (stereo not shown)	1.02
CCC1CCCCN1S(=O)(=O)c1ccc(C(=O)Nc2nnc(C3CC3)o2)cc1 (stereo not shown)	2.52
Nc1ccc(-c2c3ccc(=O)cc-3oc3cc(O)ccc23)c(C(=O)O)c1	7.03
C=CCn1cc(Cl)cc(C(=O)Nc2ccccc2)c1=O	-7.56
Cc1nc2nc[nH]n2c(=O)c1NS(=O)(=O)c1ccc([N+](=O)[O-])cc1	19.5
Cc1c(NS(=O)(=O)c2ccc(C(=O)NCc3ccc(F)cc3)cc2)c(=O)n(-c2ccccc2)n1C	-15
Cc1ccc(C2OC(=O)C=C2c2ccccc2)cc1 (stereo not shown)	3.71
N#CC(C#N)=C(N)/C(C#N)=C/c1cc(O)c(O)c(O)c1	15.9
O=C1CCCCCN1CP(=O)(O)CCc1ccccc1	3.98
CS(=O)(=O)N1CCN(c2ccc(NC(=O)C(c3ccccc3)c3ccccc3)cc2)CC1	-2.88
CCOc1ccccc1/C=N/n1c(C)nc2ccccc2c1=O	3.63
COc1ccc(-c2c(-c3cc(OC)cc(OC)c3)n(C)c3ccc(-c4ccc(OC)cc4F)cc23)cc1	12.3
COCCC1CCCCN1C(=O)c1cccc(OC2CCN(S(C)(=O)=O)CC2)c1 (stereo not shown)	5.55

Compound	hERG current change (%, negative = inhibition) at 10uM [%]
Cc1[nH]ncc1N=Cc1ccc([N+](=O)[O-])cc1	12.5
COC(CC(=O)NNC(=S)Nc1ccc(Cl)cc1)OC	23.5
Cc1ccc(C(c2c(O)nc3n(c2=O)CCS3)c2c(O)nc3n(c2=O)CCS3)cc1	19.8
COC(=O)CN(c1ccc(C(C)C)cc1)S(=O)(=O)c1c(C)[nH]c(=O)[nH]c1=O	16.3
O=c1cc2n(c(=O)[nH]1)CCC1=C2CCCC1	12.3
CC(C(=O)Nc1ccc(N2CCOCC2)cc1)N1C(=O)c2ccccc2C1=O (stereo not shown)	-3.17
Cc1noc(C)c1CSCC(=O)Nc1cc(Cl)ccc1N1CCCCC1	1.96
CC(=O)N1CCOc2ccc(S(=O)(=O)Nc3ccc(C)cn3)cc21	10.6
CCC(C)NC(=O)C1CCCCN1S(=O)(=O)c1ccc(F)cc1 (stereo not shown)	-5.25
CC1=CCP(=O)(c2ccccc2)C1 (stereo not shown)	-2.8
O=C(CCCSc1ccccc1)Nc1cccc(CO)c1	8.93
CCCCC(C(=O)O)C(C)CC(=O)Nc1nccs1 (stereo not shown)	9.92
COc1ccc(CC(=O)NC(C)c2nnc(SCC(=O)Nc3nc(C)cs3)n2C)cc1 (stereo not shown)	0.589
N#Cc1c(N)nc2c(c1-c1ccc3c(c1)OCO3)CCCCCC2	1.67
CN(NC(=S)Nc1ccc(OC(F)F)cc1)C(=S)Nc1ccc(OC(F)F)cc1	-27.6
Cc1ccc(CNC(=O)/C=C/c2ccc(Br)o2)cc1	-26.2
CCOC(=O)c1ccccc1NC(=O)C=C(C)C	5.66
COCCn1c(SCC(=O)Nc2cc(C)on2)nnc1-c1ccco1	-4.67
O=C(NCCCn1ccnc1)c1ccc(Br)s1	-9.08
COc1cc(OC)cc(C(=O)NCC(=O)OCC(=O)C(C)(C)C)c1	16.6
CC(Oc1cccc(Cl)c1)C(=O)Nc1cc(S(=O)(=O)N2CCOCC2)ccc1N1CCCCC1 (stereo not shown)	8.44
CCOC(=O)c1ccc(-n2c(CN3CCC(C(N)=O)CC3)nc3ccc([N+](=O)[O-])cc3c2=O)cc1	-27.3

Compound	hERG current change (%, negative = inhibition) at 10uM [%]
CCOC(=O)c1c(C)oc2ccc(OC(=O)COc3c(F)c(F)c(F)c(F)c3F)cc12	16.5
CCN(CC(=O)NCc1ccc(Cl)cc1)CC(=O)Nc1ccc(C(N)=O)cc1	15.2
Cn1c2ccccc2c2cnn(CC(=O)Nc3ccccc3Br)c(=O)c21	3.78
N/C(=N\OC(=O)c1cccc2ccccc12)c1ccccn1	-2.1
O=C(O)/C=C/C(=O)N1CCN(S(=O)(=O)c2cccc(C(F)(F)F)c2)CC1	-36.9
COc1ccc(NC(=O)CSc2ncnc3c2sc2ccccc23)c(OC)c1	14.1
O=c1[nH]c2ccc(NS(=O)(=O)c3ccc(Cl)cc3)cc2[nH]1	15.8
CCN1CCN(C(=O)Cn2ncc3c([nH]c4ccc(C)cc43)c2=O)CC1	-2.07
CSC(=Nc1ccccc1)C(C#N)c1nc2ccccc2[nH]1 (stereo not shown)	11.6
C#CCN(CC=C)C(=O)C1CCC(=O)N(CCCc2ccccc2)C1 (stereo not shown)	3.39
CC(=O)OC(C)C[N+](C)(C)C.[Cl-] (stereo not shown)	4.31
Cc1ccc(OCC(=O)NNC(=S)NCc2ccccc2)cc1	18.2
COc1ccccc1NC(=O)CSc1ncn(-c2ccccc2)n1	-41.1
COCCSc1ccccc1C(=O)Nc1ccc([N+](=O)[O-])cc1OC	-39.9
CN(C)S(=O)(=O)Oc1cccc(C(=O)Nc2ccc(Cl)c(Cl)c2)c1	-7.49
Cc1c(-c2ccccc2)[n+](=O)c(-c2ccc(Cl)cc2)c(C)n1[O-]	21.2
Cc1nc2ccccn2c1C(=O)CSc1ccc(Cl)cc1Cl	-4.24
Cc1sc2nc(C(C)Sc3n[nH]c(N)n3)[nH]c(=O)c2c1C (stereo not shown)	6.77
CC1CCN(CC(=O)c2cccc(C(F)(F)F)c2)CC1.O=C(O)C(=O)O	7.63
COc1ccc(S(=O)(=O)N2CCCC2CNC(=O)C(=O)NCc2ccccc2Cl)cc1 (stereo not shown)	-22.3
COCCNC(=S)N/N=C/c1ccc2c(c1)OCCO2	-17.4
CCCN1CCN(C(=O)c2cc(COc3ccc(F)c(F)c3)on2)CC1	-44.8

Compound	hERG current change (%, negative = inhibition) at 10uM [%]
O=C(CNc1ccc(F)cc1)N/N=C/c1c(O)ccc2ccccc12	12.8
Cc1ccccc1-c1nc(CS(=O)(=O)CC(=O)NCc2ccccc2)c(C)o1	-4.06
C=CCn1c(N)cc(=O)nc1SC(C)C(=O)Nc1ccc(C(=O)OCC)cc1 (stereo not shown)	6.4
O=C(Nc1cccc(Cl)c1)c1ccc(NCC2CCCO2)c([N+](=O)[O-])c1 (stereo not shown)	-2.53
O=C(Cn1nc(Cc2cccnc2)c2ccccc2c1=O)Nc1cccnc1Cl	3.37
CCC(=O)Nc1cccc(-c2cc3ccccc3oc2=O)c1	-28.2
COc1ccc(-c2cc(C(F)(F)F)nc(SCC(=O)NCCN3CCOCC3)n2)cc1OC	-5.84
O=c1cc([O-])nc(SCc2ccccc2)n1-c1ccc(Cl)cc1.[K+]	19.9
COc1ccc(-n2ncc3c2CC(C)(C)CC3NC(=O)C2=CC(=O)CC(C)(C)O2)cc1 (stereo not shown)	-68.3
[2H]C(CCOS(N)(=O)=O)c1ccc(C(C)(C)C)cc1 (stereo not shown)	3.54
CCc1ccc(NC(=O)CSc2nc3ccsc3c(=O)n2CCC(=O)O)cc1	17.6
Cc1cccc(-n2ccnc2CN2CCC(CO)(Cc3ccccc3)CC2)c1	-50.1
O=C(NCc1ccccc1Cl)NC(=O)c1csc([N+](=O)[O-])c1	-8.11
CCCCNC(=S)N1CCN(c2ccc(C(C)=O)cc2)CC1	-40.6
Cc1cccc(-n2cc(CNCCN3CCOC3=O)c(-c3cccc(F)c3)n2)c1	-16.4
Nc1c(N(Cc2ccco2)C(=O)c2ccc(Cl)cc2)c(=O)[nH]c(=O)n1Cc1ccccc1	11.5
c1ccc(-c2noc(CN3CCc4sccc4C3)n2)cc1	11
CCCNc1c(NS(=O)(=O)c2ccc(OC)c(OC)c2)c(=O)oc2ccccc12	-74.1
COC(=O)c1ccc(CSc2nc3sc4c(c3c(=O)n2C)CCCC4)o1	17.4
O=C(NCC1CCCO1)C1CCC(=O)N1Cc1ccccc1Cl (stereo not shown)	10.8
CCN(CC(=O)Nc1c(F)cccc1F)C(=O)c1ccc(S(=O)(=O)NCc2ccco2)cc1	8.72
CN(C)C(=O)C1OC(C)(C)OC1C(=O)N(C)C (stereo not shown)	13.5
